# The list shows a part of the results.
# T1: UNK ZnF1-6 (called full-length) (human, UniProt Q9C0B0 30-357)
# T1 sequence: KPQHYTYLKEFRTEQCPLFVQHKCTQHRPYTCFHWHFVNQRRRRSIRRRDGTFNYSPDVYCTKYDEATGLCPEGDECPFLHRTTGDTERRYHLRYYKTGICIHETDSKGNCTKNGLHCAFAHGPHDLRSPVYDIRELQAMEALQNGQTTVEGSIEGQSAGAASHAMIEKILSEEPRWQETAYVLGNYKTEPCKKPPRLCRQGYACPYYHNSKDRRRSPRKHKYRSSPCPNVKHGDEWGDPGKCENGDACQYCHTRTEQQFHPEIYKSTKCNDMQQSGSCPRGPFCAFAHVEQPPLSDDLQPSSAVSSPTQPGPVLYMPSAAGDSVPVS
# B1: chr1:183252010:183252124:-|3pUTR|ENSG00000157064|unk|FALSE|unique (ssRNA)
# RNA: GGGAGUUCUACAGUCCGACGAUCUCUUUGUUCACUCCCUGUAGAACUUGGAUGAAAUCAGUGUCCAUGGUUCUUUAUGUUUGUAGUCUUGAUGUGCUCCUGUGGUAUUACUUCCCCUCUGAUAGGACAUUGUAGCCAGCCUCACAACAGAGGAUUGAGCAUCA
# B2: ENSG00000136451:be:win_2851|3pUTR|ENSG00000136451|bound_else_gene|NA|bound_elsewhere_windowed (ssRNA)
# RNA: GGGAGUUCUACAGUCCGACGAUCAUUUUAUCUCUGUACAUAAAGUAGAAACCAAAAGCUAGGGAAACAGAUACUCUUUACACCAUCAUGCCACGCAUUGUUUUUAAAGCAUUGCGUUAAAAAAAAAAUUAACUAAACCAAGAUCAACAGAGGAUUGAGCAUCA
# B3: chr16:57253408:57253449:+|3pUTR|ENSG00000102931|msi1_unk|FALSE|overlapping (ssRNA)
# RNA: GGGAGUUCUACAGUCCGACGAUCUGUGUGGUAGAUUACUUAUCAGAAAACAUAUAUGUCAUCUCUAGAACGAAGAAAAAGCAUAGUAGUUCAAUUCCCAGUGUGUCCCUUUGAUUUUUUUUUUUUAAUAGUAAAAAUAAGAAUCAACAGAGGAUUGAGCAUCA
# B4: chr8:41262982:41263083:-|3pUTR|ENSG00000104332|msi1|total|mutant (ssRNA)
# RNA: GGGAGUUCUACAGUCCGACGAUCCAACCGGGCCCUCUCUCUGCGGCAGAGUCCUCCGUGGAGGGGUUUACCUGGAACAUCCGCCGUUACCACAGAAUACGGAAGAGCAGGUGACUGUGCUGUGCAGCUCUCUAAAUGGGAAUUCAACAGAGGAUUGAGCAUCA
# B5: chr11:111720585:111720689:+|CDS|ENSG00000170145|unk|total|mutant (ssRNA)
# RNA: GGGAGUUCUACAGUCCGACGAUCGUCUGUUCAGAGGGACCUGAACUUUCUGGAAGACAACCCUUCCCUUAAGGACAUCAUGUCCGCCAAUCAGCCUUCACCCCGCAUGACAUCUCCCUUCAUAAGCCUGAGACCUACCAACCCCAACAGAGGAUUGAGCAUCA
# B6: chr7:88197266:88197367:+|3pUTR|ENSG00000008277|unk|FALSE|unique (ssRNA)
# RNA: GGGAGUUCUACAGUCCGACGAUCCAAAACAUGUGAUAUCCCUUUAACCUGUGCACAGUCUGGAGGCAGUUUUAUUGAGUGAGUAGUUGAGUGAGAGAACAAAAUGCCCAGCAAAACUUCUGGCCUCCACAGUUUGCUGAUGCACAACAGAGGAUUGAGCAUCA
# B7: chr2:24000049:24000165:+|3pUTR|ENSG00000173960|unk|FALSE|unique (ssRNA)
# RNA: GGGAGUUCUACAGUCCGACGAUCGUAGCAUAUGACUGGAAACUAUAUUCAGUGCACUUUCUCCAAAAGACUACCCAGAAAAAUAGACUUAUUUUCAAAUACCAGUUAUCAAGAUAUAUUAAAUAGCUGUAUUGUUUAGAAUCUCAACAGAGGAUUGAGCAUCA
# B8: chr16:55506527:55506628:+|3pUTR|ENSG00000087245|msi1|total|mutant (ssRNA)
# RNA: GGGAGUUCUACAGUCCGACGAUCUAUCAGUUUUAAUGCUACUACUAACAAUGAACAGUAACAAUAAUAUCCCCCUCAAUUAACCGAGUGCUUUCUAUGUGCAAGGCACUUUUCACGUGUCACCUAUUUUAACCUUUCCAACCACAACAGAGGAUUGAGCAUCA
# B9: chr3:112140897:112141281:-|three_prime_utr|ENSG00000172139|control|control|control (ssRNA)
# RNA: GGGAGUUCUACAGUCCGACGAUCACUUUUUGCAAAAUUUCCUUGAUUUAAAAUAUUUGUUAUUUUAAAUAUACAAAACAUUUUAGAAAAUCUUAGAGUAAAUUUUAGUCUUAAAGCCAGAAAAUAAGUUUAUAGCCAUCUAGACAACAGAGGAUUGAGCAUCA
# B10: ENSG00000198589:be:win_1101|CDS|ENSG00000198589|bound_else_gene|NA|bound_elsewhere_windowed (ssRNA)
# RNA: GGGAGUUCUACAGUCCGACGAUCCAGUGAAGCUCUAAAUGCAGCUCAGAUAUUUGCUAUUUAUCAGUUGGGCCUGGGAUACAAGGGUACAUUUAAAUUCAAAGCAGAAAGCGACCUUUUCCUUGCUGAGCAUCACAAACUUUUCAACAGAGGAUUGAGCAUCA
# B11: chr4:173248057:173248158:+|CDS|ENSG00000109586|unk|FALSE|bound_elsewhere (ssRNA)
# RNA: GGGAGUUCUACAGUCCGACGAUCUUCAAACCUGUGGUACCAUGGCCUCAUGUUGAAGGAGUAGAAGUGGACUUAGAGUCUAUUAGAAGAAUAAACAAGGCCAAAAAUGAACAAGAGCACCAUGCUGGAGGAGAUUCCCAGAAACAACAGAGGAUUGAGCAUCA
# B12: chr12:6965580:6965681:-|3pUTR|ENSG00000215021|unk|FALSE|unique (ssRNA)
# RNA: GGGAGUUCUACAGUCCGACGAUCGUCAUUAUCUAUCUUUUUUUUCCUACAGUGACAGCCUCAUCAAGGGUAAGAAAUGAGCCUAGUCACCAAGAACUCCACCCCCAGAGGAAGUGGAUCUGCUUCUCCAGUUUUUGAGGAGCCCAACAGAGGAUUGAGCAUCA
# B13: chr10:75397829:75398748:-|three_prime_utr|ENSG00000165655|control|control|control (ssRNA)
# RNA: GGGAGUUCUACAGUCCGACGAUCCACUUUCACCUCCCCACCCAAACUUUAUAAAAGUUGAAAAAAUAUCAUUUGACUUUUUAUAGAAAAAAAAAGGAAAAAAUAAUUGAGAAAGUGUUCAUCUGAGGACUGCAUCGGUGGACACAACAGAGGAUUGAGCAUCA
# B14: chr16:57758216:57758909:-|three_prime_utr|ENSG00000140859|control|control|control (ssRNA)
# RNA: GGGAGUUCUACAGUCCGACGAUCGGGCCUGAAGCUGGGCCCUCACUGGCCUGUCCCUGCUGCAGCGCCAGGACCCCCGGAGGUAGAGGCGAGAGUGGAGGCUCUUCUUCUGCCCCGUCUCCCCUCAAAGAUGAGAAACAUGUUCAACAGAGGAUUGAGCAUCA
# B15: chr2:227551976:227552087:+|CDS|ENSG00000173744|unk|FALSE|bound_elsewhere (ssRNA)
# RNA: GGGAGUUCUACAGUCCGACGAUCUCCAUGAGCAUGCCCACAGGAUUCGGCACUCCUGCUCCCUACAGUCUUCCCACCAGCUUUAGUGGCAGCUUUCAGCAGCCUGCCUUUCCAGCCCAAGCAGCUUUCCCUCAACAGACAGCUCAACAGAGGAUUGAGCAUCA
# B16: chr5:123575802:123575904:+|CDS|ENSG00000151292|unk|FALSE|unique (ssRNA)
# RNA: GGGAGUUCUACAGUCCGACGAUCACCUGAGAACUUCUUAAUAGGACGACCAGGAAACAAAACCCAGCAAGUUAUUCACAUUAUAGAUUUUGGUUUGGCAAAGGAAUAUAUUGAUCCGGAGACAAAGAAACACAUACCAUACAGCAACAGAGGAUUGAGCAUCA
# B17: chr5:173316791:173316892:-|3pUTR|ENSG00000113739|msi1|total|mutant (ssRNA)
# RNA: GGGAGUUCUACAGUCCGACGAUCGGAAACCUUAUACCCAGAGGAAAAUACACACCUGGGGAGUACAUUUGACAAAUUUCCCUCCGGAUUUCGUUAUCUCACCUUGACCCUCAGCCAAGAUUGGUAAAGCUGCGUCCUGGCGAUCAACAGAGGAUUGAGCAUCA
# B18: chr2:218264180:218264222:-|3pUTR|ENSG00000127837|msi1_unk|FALSE|overlapping (ssRNA)
# RNA: GGGAGUUCUACAGUCCGACGAUCUUGAGGUUCCCGUUCUUUCCCUUCCCAAGUCUCUGGGGGUGGAAAGGAGGAAGAGAUACUAGUUAAAGAUUUUAAAAAUGUAAAUAAAAUAUACUUCCCAGAGACAGAGUCUGUGUGGAUCAACAGAGGAUUGAGCAUCA
# B19: chr4:108667468:108667493:+|3pUTR|ENSG00000198856|msi1_unk|FALSE|overlapping (ssRNA)
# RNA: GGGAGUUCUACAGUCCGACGAUCGAAUUUUUUUUCCUGCUGGCCUAUUGCUAUACCAAUGAUGUUGAGUGGCAUUUUCUUUUUAGUUUUUCAUUAAAAUAUAUUCCAUAUCUACAACUAUAAUAUCAAAUAAAGUGAUUAUUUCAACAGAGGAUUGAGCAUCA
# B20: chr9:135932998:135933099:-|3pUTR|ENSG00000130560|unk|total|mutant (ssRNA)
# RNA: GGGAGUUCUACAGUCCGACGAUCGCUGCUUGAAUUGCCGUGCCGACAUUUGCUUGGAGAGUCCACUUGUUAUUUGACGGAGGCCGGUUUCAACCCAGAGUUAAUGUCAAGCAUGCUAAUUUAACCCGUCACUCACAGAUGACUCAACAGAGGAUUGAGCAUCA
# B21: chr17:80395157:80395266:+|3pUTR|ENSG00000173821|unk|FALSE|bound_elsewhere (ssRNA)
# RNA: GGGAGUUCUACAGUCCGACGAUCCUUCAAAGCCUUAACUGUCAAAUCUUGCAUUAUCUUGUUUGUACAGAAAUAUACUGGCCUAGCAGAGGCAAAAAAAAAAAAAAUGAAUUUUAUUUUACUUGUCACACCUGUCUUAAUAAACAACAGAGGAUUGAGCAUCA
# B22: chr4:150265445:150265561:-|3pUTR|ENSG00000198589|unk|FALSE|bound_elsewhere (ssRNA)
# RNA: GGGAGUUCUACAGUCCGACGAUCGGAUUAGCAAAGCAGAAAACUGGCUGCUGGGUUCUGUAGUUUUAAAAAAUCUAUAUUUUUAGUCAUAAUGAGAAGUCUAUUUUCACCAAUUAUGGAAACAUACAGUGGAGCAAGUAAACCCAACAGAGGAUUGAGCAUCA
# Target: T1, UNK ZnF1-6 (called full-length)
# Experiment: nsRBNS (natural sequence RNA bind-n-seq); RBNS binding buffer (assumed for nsRBNS): 25 mM Tris pH 7.5, 150 mM KCl, 3 mM MgCl2, 0.01% Triton X-100, 500 ug/ml BSA, 20 U/ml SUPERase-In, 4 C; UNK is unkempt and MSI1 is Musashi-1; names of the RNAs are library labels; protein concentration not given here; high values mean tight binding
row,Binder,binding signal
1,B1,0.763 enrichment R
2,B2,3.17 enrichment R
3,B3,1.9 enrichment R
4,B4,0.654 enrichment R
5,B5,0.878 enrichment R
6,B6,0.667 enrichment R
7,B7,3.33 enrichment R
8,B8,0.757 enrichment R
9,B9,2.83 enrichment R
10,B10,0.4 enrichment R
11,B11,1.08 enrichment R
12,B12,2.04 enrichment R
13,B13,0.652 enrichment R
14,B14,0.756 enrichment R
15,B15,1.07 enrichment R
16,B16,1.16 enrichment R
17,B17,0.493 enrichment R
18,B18,6.35 enrichment R
19,B19,5.27 enrichment R
20,B20,0.423 enrichment R
21,B21,0.564 enrichment R
22,B22,2.4 enrichment R

# Source: PMC12136788
